{
  "source": "PubChem BioAssay AID602340",
  "about": "(Broad Institute, 2012)",
  "note": "Out of some 330,000 compounds screened, about 2,600 (0.79%) were called active. The inconclusive results got no clear call from the source; some entries with a clear call stand among them for comparison.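 The calls were made as follows: active = mean ATP rescue above about 67%, or every replicate alone reaching that limit (limit read from the data, passing the limit was not always enough); inconclusive = no clear call, values can overlap the other calls; inactive = mean under the limit and some replicate under it.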",
  "data": [
    {"test": "suppressors of statin myotoxicity in C2C12 myotubes, primary screen, cell-based, single point, plate reader (AID 602340);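 also: myotubes were challenged with 10 µM simvastatin during compound exposure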", "details": "C2C12 myotubes + simvastatin, ATP luminescence, 48 h; at 7.49 µM; stronger effect = higher value; scaled: DMSO 0, geranylgeraniol control 100", "values": [
      {"compound": "COc1ccccc1-c1cnc2c(c1)C(=O)N([C@@H](C)CO)C[C@@H](C)[C@@H](CN(C)CC1CCOCC1)O2", "rescue of ATP level": "inactive: 4.99%"},
      {"compound": "COc1cccc(C(=O)N2C[C@H]3[C@@H](c4ccccc42)[C@@H](CO)N3C(=O)c2ccccc2)c1", "rescue of ATP level": "inactive: -11.4%"},
      {"compound": "C[C@@H]1CN([C@@H](C)CO)C(=O)c2cc(NS(=O)(=O)c3ccc(F)cc3)ccc2O[C@H]1CN(C)S(=O)(=O)c1cccs1", "rescue of ATP level": "inconclusive: 77.1%"},
      {"compound": "C[C@@H]1CN([C@H](C)CO)C(=O)Cc2cc(NC(=O)Nc3ccc(F)cc3)ccc2O[C@H]1CN(C)Cc1ccc(Cl)c(Cl)c1", "rescue of ATP level": "inconclusive: 79.2%"},
      {"compound": "O=C(Cc1cccs1)Nc1nnc(Cc2ccccc2)s1", "rescue of ATP level": "active: 121%"},
      {"compound": "Cc1nnc(Sc2nc3c(c(=O)n(C)c(=O)n3C)n2Cc2ccccc2Cl)s1", "rescue of ATP level": "active: 118%"},
      {"compound": "CN1C(=O)c2cc(NC(=O)c3cccs3)ccc2OC[C@H]2O[C@H](CC(=O)O)CC[C@H]21", "rescue of ATP level": "inactive: -1.15%"},
      {"compound": "C[C@H]1CN([C@@H](C)CO)C(=O)c2cc(C3=CCCCC3)cnc2O[C@H]1CN(C)Cc1ccccc1F", "rescue of ATP level": "inconclusive: 92%"},
      {"compound": "COc1ccc(S(=O)(=O)N(C)C[C@H]2Oc3c(NC(=O)Nc4ccc(F)cc4)cccc3C(=O)N([C@@H](C)CO)C[C@H]2C)cc1", "rescue of ATP level": "inconclusive: 80.8%"},
      {"compound": "O=C(COC(=O)c1ccccc1NC(=O)c1ccco1)Nc1ncc(Cl)cc1Cl", "rescue of ATP level": "active: 94.1%"},
      {"compound": "COc1cccc(CNc2cccc3cccnc23)c1O", "rescue of ATP level": "inconclusive: 68.8%"},
      {"compound": "COC(=O)CNC(=O)C1CCN(C(=O)OCc2ccccc2)CC1", "rescue of ATP level": "inconclusive: 93.8%"},
      {"compound": "O=C(C[C@@H]1CC[C@H](NS(=O)(=O)c2ccccc2)[C@H](CO)O1)NCCN1CCCCC1", "rescue of ATP level": "inactive: 1.35%"},
      {"compound": "COc1ccc(C(=O)N/N=C(\\C)CC(=O)Nc2ccc(N(C)C)cc2)c(OC)c1", "rescue of ATP level": "inactive: -9.89%"},
      {"compound": "C[C@H]1CCCCO[C@@H](CN(C)C(=O)NC2CCCCC2)[C@@H](C)CN([C@@H](C)CO)C(=O)c2cc(NC(=O)Nc3cccc4ccccc34)ccc2O1", "rescue of ATP level": "active: 95.7%"},
      {"compound": "C[C@@H]1CN([C@H](C)CO)C(=O)c2cc(NC(=O)Nc3cccc4ccccc34)ccc2O[C@@H](C)CCCCO[C@@H]1CN(C)Cc1ccc2c(c1)OCO2", "rescue of ATP level": "inconclusive: 71.9%"},
      {"compound": "CNC(=O)C(NC(=O)c1ccccc1)=C(C)C", "rescue of ATP level": "inconclusive: 70.3%"},
      {"compound": "Cc1ccc(S(=O)(=O)Nc2ccc3c(c2)CC(=O)N([C@@H](C)CO)C[C@H](C)[C@H](CN(C)S(=O)(=O)c2cccs2)O3)cc1", "rescue of ATP level": "inconclusive: 81.7%"},
      {"compound": "O=C(NCc1ccc2c(c1)OCO2)c1cc2ncc(Br)cn2n1", "rescue of ATP level": "inactive: 19.3%"},
      {"compound": "COCCCn1c(SCC(=O)NCc2ccco2)nc2sc3c(c2c1=O)CCC3", "rescue of ATP level": "active: 132%"},
      {"compound": "Cc1ccc(-c2ccccc2[C@@H]2C[C@H]3CN(C)C(=O)[C@]34CCCN24)o1", "rescue of ATP level": "active: 103%"},
      {"compound": "Cc1nc(NCc2ccco2)c2c(C)c(C)sc2n1", "rescue of ATP level": "inconclusive: 68.8%"},
      {"compound": "Cc1ccc(S(=O)(=O)Nc2ccc3c(c2)CC(=O)N([C@@H](C)CO)C[C@H](C)[C@H](CN(C)C(=O)NC(C)C)O3)cc1", "rescue of ATP level": "inactive: 2.74%"},
      {"compound": "CC(C)Oc1ccc(C(=O)NCCCNC(=O)c2ccccn2)cc1", "rescue of ATP level": "inactive: 2.21%"},
      {"compound": "O=[N+]([O-])c1ccc(NN=Cc2ccc(O)cc2)nc1", "rescue of ATP level": "inactive: -6.76%"},
      {"compound": "COc1ccc(CN(C)C[C@@H]2Oc3ccc(NS(=O)(=O)c4ccccc4)cc3CC(=O)N([C@H](C)CO)C[C@H]2C)cc1", "rescue of ATP level": "inconclusive: 67.6%"},
      {"compound": "COc1cccc(C2(O)CCN(C(=O)C3CC3)CC2)c1", "rescue of ATP level": "inconclusive: 71.1%"},
      {"compound": "O=C(CN1CCN(C(=O)c2ccccc2)CC1)Nc1ncc(Br)cc1Br", "rescue of ATP level": "inconclusive: 69.7%"},
      {"compound": "C[C@H]1CN([C@@H](C)CO)C(=O)c2cc(NC(=O)Cc3cn(C)c4ccccc34)ccc2O[C@@H]1CN(C)S(=O)(=O)c1cccs1", "rescue of ATP level": "inconclusive: 75.5%"},
      {"compound": "C[C@H]1CN([C@@H](C)CO)C(=O)c2cccc(NS(=O)(=O)c3ccccc3)c2O[C@H]1CN(C)Cc1ccc(Oc2ccccc2)cc1", "rescue of ATP level": "inconclusive: 71.4%"},
      {"compound": "COC(=O)c1ccc(C)c(-n2c(=O)n(Cc3ccccc3)c(=O)c3[nH]cnc32)c1", "rescue of ATP level": "inconclusive: 17.8%"},
      {"compound": "Cc1cc(C)c(NC(=O)CSc2nc3ccc(N4C(=O)c5ccccc5C4=O)cc3s2)c(C)c1", "rescue of ATP level": "inactive: 6.2%"},
      {"compound": "CCCC#Cc1cnc2c(c1)C(=O)N([C@@H](C)CO)C[C@H](C)[C@@H](CN(C)C(=O)NCCC)O2", "rescue of ATP level": "inactive: 14.1%"},
      {"compound": "C[C@H](CO)N1C[C@H](C)[C@@H](CN(C)C(=O)c2ccccn2)Oc2ncc(-c3ccccc3)cc2C1=O", "rescue of ATP level": "inactive: 3.82%"},
      {"compound": "C=CCNC(=O)C1CC(=O)N(c2ccc(OCC(=O)Nc3ccc(C)cc3)cc2)C1", "note": "(stereo not drawn)", "rescue of ATP level": "inconclusive: 66.1%"},
      {"compound": "CCc1cccc(CC)c1NC(=O)C(CC)Sc1nc2ccncc2[nH]1", "note": "(stereo not drawn)", "rescue of ATP level": "inconclusive: 66.9%"},
      {"compound": "C[C@H]1CN([C@@H](C)CO)C(=O)c2cc(NS(=O)(=O)c3ccc(F)cc3)ccc2O[C@@H]1CN(C)S(=O)(=O)c1ccc(F)cc1", "rescue of ATP level": "inconclusive: 68.2%"},
      {"compound": "FC(F)(F)COc1nc(OCC(F)(F)F)nc(N2CCN(c3ccccc3)CC2)n1", "rescue of ATP level": "inconclusive: 65.6%"},
      {"compound": "Cc1ccc2nc(-c3cccc(NC(=O)c4ccc5c(c4)OCCO5)c3)oc2c1", "rescue of ATP level": "active: 110%"},
      {"compound": "COc1cc(/C=N/NC(=O)Cc2ccc(Br)cc2)cc(OC)c1O", "rescue of ATP level": "inconclusive: 15.4%"},
      {"compound": "CCCCCc1nc(N)c(C#N)c(-c2ccco2)c1CCCC", "rescue of ATP level": "inconclusive: 67.1%"},
      {"compound": "C[C@@H]1CN([C@@H](C)CO)C(=O)c2cc(NC(=O)c3ccccc3)ccc2O[C@@H](C)CCCCO[C@H]1CN(C)C(=O)CCCN(C)C", "rescue of ATP level": "inconclusive: 66.8%"},
      {"compound": "O=C(CNCc1ccccc1Cl)Nc1ccc2c(c1)OCCO2", "rescue of ATP level": "inactive: -1.49%"},
      {"compound": "O=C(NC1=NCCS1)c1cccs1", "rescue of ATP level": "inconclusive: 80%"},
      {"compound": "Cc1ccccc1NC(=O)c1nc(S(C)(=O)=O)ncc1Cl", "rescue of ATP level": "inconclusive: 66.7%"},
      {"compound": "C[C@H]1CN([C@@H](C)CO)C(=O)Cc2cc(NC(=O)Cc3ccccc3)ccc2O[C@@H]1CN(C)Cc1ccc(Cl)c(Cl)c1", "rescue of ATP level": "inconclusive: 66.9%"},
      {"compound": "CNC[C@H]1Oc2ccc(NC(=O)c3ccncc3)cc2C(=O)N([C@@H](C)CO)C[C@@H]1C", "rescue of ATP level": "inconclusive: 67.9%"},
      {"compound": "COc1ccc(/C=N/NC(=O)CCC(=O)Nc2ccc(Br)cc2)c(OC)c1", "rescue of ATP level": "inconclusive: 40.3%"},
      {"compound": "C=CCN1CC(c2nc3ccccc3n2Cc2cccc3ccccc23)CC1=O", "note": "(stereo not drawn)", "rescue of ATP level": "inconclusive: 70.1%"},
      {"compound": "Cc1cc(C(C)(C)C)cc(S(=O)(=O)NCC(=O)O)c1C", "rescue of ATP level": "inconclusive: 69.2%"},
      {"compound": "COc1ccccc1CNC(=O)C[C@H]1CC[C@@H]2[C@H](COC[C@@H](O)CN2Cc2cccc(-c3ccncc3)c2)O1", "rescue of ATP level": "inactive: 11.8%"},
      {"compound": "Cc1noc(C)c1S(=O)(=O)Nc1ccc2c(c1)C(=O)N([C@H](C)CO)C[C@H](C)[C@@H](CN(C)C(=O)Nc1cccc3ccccc13)O2", "rescue of ATP level": "inconclusive: 80.5%"},
      {"compound": "COc1ccc(C(=O)c2ccc(OC)cc2O)c(O)c1", "rescue of ATP level": "active: 128%"},
      {"compound": "COc1cc(-c2ccccc2)nc2ccccc12", "rescue of ATP level": "active: 95.3%"},
      {"compound": "Cn1cccc1C(=O)C(=O)Nc1ccc(Cl)cc1", "rescue of ATP level": "active: 92.8%"},
      {"compound": "Cc1cccc(OCCCc2c(C)n[nH]c2C)c1", "rescue of ATP level": "inconclusive: 71.9%"},
      {"compound": "Cc1cc(C)n(-c2cc(Cl)cc(Cl)c2)c(=O)c1C#N", "rescue of ATP level": "inconclusive: 77.3%"},
      {"compound": "COc1ccc(-c2nnn(CC(=O)NCCc3c[nH]c4ccccc34)n2)cc1OC", "rescue of ATP level": "inconclusive: 87.5%"},
      {"compound": "CC(C)NC(=O)Nc1ccc2c(c1)C(=O)N([C@H](C)CO)C[C@@H](C)[C@H](CN(C)C(=O)C1CCCCC1)OCCCC[C@@H](C)O2", "rescue of ATP level": "inconclusive: 75.6%"},
      {"compound": "C[C@H]1CN([C@@H](C)CO)C(=O)c2cccc(NC(=O)Nc3ccc4c(c3)OCO4)c2O[C@H]1CN(C)S(=O)(=O)c1ccc(Cl)cc1", "rescue of ATP level": "inconclusive: 68.3%"},
      {"compound": "COc1cc(NC(=O)Cc2cccc3ccccc23)c(C(=O)O)cc1OC", "rescue of ATP level": "active: 82.9%"},
      {"compound": "N#C/C(=N\\Nc1ccc(F)cc1)C(=N)N1CCCCC1", "rescue of ATP level": "inactive: -15.9%"},
      {"compound": "[O-][n+]1onc2c1CCc1nnccc1-2", "rescue of ATP level": "active: 84.2%"},
      {"compound": "Cc1ccccc1OCc1nc(-c2ccc(NC(=O)c3ccco3)cc2)no1", "rescue of ATP level": "inconclusive: 74.4%"},
      {"compound": "Cc1noc(C)c1NC(=O)Nc1ccc2c(c1)C(=O)N([C@@H](C)CO)C[C@H](C)[C@@H](CN(C)S(=O)(=O)c1c(C)noc1C)OCCCC[C@@H](C)O2", "rescue of ATP level": "inconclusive: 68%"},
      {"compound": "C[C@H](CO)N1C[C@H](C)[C@H](CN(C)C(=O)Cc2ccccn2)Oc2ncc(C#CC3CCCCC3)cc2C1=O", "rescue of ATP level": "inactive: -7.13%"},
      {"compound": "O=C(C[C@H]1C[C@@H]2c3cc(NC(=O)C4CCC4)ccc3O[C@@H]2[C@@H](CO)O1)NCc1cccc(F)c1", "rescue of ATP level": "inactive: -3.22%"},
      {"compound": "C[C@@H]1CN([C@@H](C)CO)C(=O)c2cc(C#Cc3ccccc3F)cnc2O[C@H]1CN(C)S(=O)(=O)c1ccccc1F", "rescue of ATP level": "inconclusive: 71.5%"},
      {"compound": "COc1ccccc1-n1nc(C)cc1N", "rescue of ATP level": "inconclusive: 27.5%"},
      {"compound": "COc1cccc(C#Cc2ccc3c(c2)O[C@H](CN(C)C(=O)c2ccccn2)[C@H](C)CN([C@H](C)CO)S3(=O)=O)c1", "rescue of ATP level": "inconclusive: 73.1%"},
      {"compound": "CO[C@@H]1CN(C)C(=O)c2cc(NC(=O)C3CC3)ccc2OC[C@@H](C)N(C)C[C@@H]1C", "rescue of ATP level": "inactive: -3.37%"},
      {"compound": "Cc1cc(C)c(C#N)c(N2CCCC(C(N)=O)C2)n1", "note": "(stereo not drawn)", "rescue of ATP level": "active: 170%"},
      {"compound": "Cc1ccc(S(=O)(=O)N(C)C[C@@H]2Oc3ccc(NC(=O)Nc4c(C)noc4C)cc3CC(=O)N([C@@H](C)CO)C[C@@H]2C)cc1", "rescue of ATP level": "inactive: -43.4%"}
    ]}
  ]
}
